Measured values as given in patent US11746155B2, “Cannabinoid receptor type 1 (CB1) binding proteins and uses thereof” (Takeda Pharmaceutical Company Limited, priority 2018, dated 2023).

Target: T1, CB1 (Homo sapiens, UniProt P21554)
T1 construct: host or cells: cAMP Hunter CHO-K1 CNR1 Gi cell line (CHO-K1)
Experiment: cAMP assay for inverse agonism, cAMP Hunter CHO-K1 CNR1 Gi cells, forskolin only
Assay type: cell-based
Settings: no agonist
Excerpt: The dotted purple line represents the level of cAMP released upon treatment with forskolin, the maximal amount of cAMP in the assay. The red line corresponds to CB1 small molecule agonist CP-55,940 used as control for the assay.
The humanized anti-CB1 variants were reevaluated for their ability to bind CHO-huCB-1 cells and compared to mouse parental clones M5 and M7 (FIGS. 7A and 7B) to ensure that binding was retained. The assay conditions used were similar to those described in Example 5. Following binding analysis, test variants were also evaluated for function as antagonists in the cAMP and pERK assays according to Examples 3 and 4 (FIGS. 8A, 8B, 9A, and 9B) to ensure that binding and activity was maintained after humanization. All clones retained their binding and antagonist activity.

T1 sequence (P21554 whole entry): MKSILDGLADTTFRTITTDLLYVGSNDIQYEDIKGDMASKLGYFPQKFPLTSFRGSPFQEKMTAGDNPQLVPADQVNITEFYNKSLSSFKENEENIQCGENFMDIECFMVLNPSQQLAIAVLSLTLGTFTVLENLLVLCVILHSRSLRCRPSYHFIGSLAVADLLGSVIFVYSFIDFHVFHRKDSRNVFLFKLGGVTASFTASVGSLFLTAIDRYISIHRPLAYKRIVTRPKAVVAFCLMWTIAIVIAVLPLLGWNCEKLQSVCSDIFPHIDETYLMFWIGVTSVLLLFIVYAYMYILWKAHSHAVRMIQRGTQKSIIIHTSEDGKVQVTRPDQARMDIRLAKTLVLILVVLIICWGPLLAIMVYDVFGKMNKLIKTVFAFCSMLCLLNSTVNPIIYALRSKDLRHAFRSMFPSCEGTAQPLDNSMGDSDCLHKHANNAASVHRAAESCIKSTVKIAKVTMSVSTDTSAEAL

B1: M7-H5: humanized anti-CB1 antibody variant of clone M7, human IgG1 backbone (antibody)
heavy: QVQLVQSGAEVVKPGASVKLSCKASSYTFTRYWMNWVKQAPGQGLEWIGMIDPYDSETHYNQKFKDKAILTVDKSTSTAYMELSTLRSEDTAVYFCARSQPRYYAMDYWGQGTSVTVSS[human IgG1 constant region with changes skipped]
light: DIQMTQSPSSLSASLGDRVTLTCRASQEISGFLSWLQLRPDGTIKRLIYAASSLDSGVPSRFRGSWSGTDYTLTISSLQSEDFADYYCLQYSSYPYTFGGGTKLEIKRTVAAPSVFIFPPSDEQLKSGTASVVCLLNNFYPREAKVQWKVDNALQSGNSQESVTEQDSKDSTYSLSSTLTLSKADYEKHKVYACEVTHQGLSSPVTKSFNRGEC
Inverse agonism activity in cAMP assay: inverse agonism
